Data reported in ChEMBL document CHEMBL4888484, “Replenishing the malaria drug discovery pipeline: Screening and hit evaluation of the MMV Hit Generation Library 1 (HGL1) against asexual blood stage Plasmodium falciparum ,using a nano luciferase reporter read-out” (2022).
Out of some 150,000 compounds screened, about 540 (0.36%) showed an effect of 50% or more. The list shows a part of the results.

These compounds were tested on Plasmodium falciparum (assay: Primary screen in NF54 nanoGlo assay, in single point, at 2uM, 72h; a lower Z score goes with more inhibition). Conditions: timepoint 72 hour.
Type: functional, Erythrocyte

Compound | % Inhibition | Z score
Cc1occc1C(=O)NCc1nnc2n1CCC2 | -3% | 0.3
COc1ccc(C(=O)N/C(=C\c2cn(S(=O)(=O)N(C)C)c3ccccc23)C(=O)NCCN2CCOCC2)cc1OC | 4% | -0.7
Cc1nc(CC(N)=NOCc2cc(Cl)c3c(c2)OCCO3)cs1 | 15% | -1.51
COc1ncc(-c2c(C)c(-c3cnn(C)c3)nc(N)c2C#N)cn1 | -2% | 0.24
O=C(Cc1cn2c(n1)CCCC2)N[C@H]1CCCc2cnccc21 | -12% | 1.23
CN(C)c1cccc(COC(=O)COc2ccccc2F)c1 | 10% | -1.4
CN(C)S(=O)(=O)N(CCN1CCCC1)[C@H]1CCN(C(=O)c2cccs2)C1 | 2% | -0.34
Fc1ccc2[nH]c(COCc3nc([C@H]4CCOC4)no3)nc2c1 | 1% | -0.24
CCCC[C@H](C)C(=O)Nc1nc(C(C)C)nn1C | -17% | 1.69
Cc1cccc(OCC(=O)Nc2cc(F)c3nc(N4CCOCC4)ccc3c2)c1 | -8% | 1.08
Nc1nc(NC2CC2)cc(-c2ccncc2)n1 | -2% | 0.32
CCOC(=O)c1nnsc1NC(=O)[C@H](C#N)C(=O)OCC | 0% | -0.03
CC(C)(C(=O)N1CCc2cnccc21)c1cccs1 | -9% | 0.82
CCCC[C@H]1CN(c2cccc(-c3ccccc3)c2)C(=O)CN1C(=O)CO | 2% | -0.24
COc1ccccc1[C@H](CC(C)C)NC(=O)N(C)Cc1nnc[nH]1 | 5% | -0.93
Cn1cc(CC(=O)NCC2(N3CCOC(C)(C)C3)CCCCC2)cn1 | -6% | 0.92
c1ccc(Cn2c(Cc3cccc4ccccc34)nc3ccccc32)cc1 | 26% | -3.35
Cc1cc(C)n(-c2ccc([C@H](C)NC(=O)c3nc(=O)[nH][nH]3)cc2)n1 | 1% | -0.09
CCc1ccc(C(=O)NC(C)(C)c2cn([C@H]3CN[C@H](C(=O)NC)C3)nn2)cc1 | -26% | 2.51
O=C(C1CCc2ccccc2C1)N1CCC(C(=O)O)(C(F)(F)F)C1 (stereo not drawn) | 1% | -0.09
Fc1ccc(OCc2nc([C@H]3CCOC3)no2)c(F)c1 | -2% | 0.23
COCc1cccc(C(=O)N2C[C@]3(C)C[C@H]2CC(C)(C)C3)n1 | -15% | 1.57
Cc1cc(-n2cnnn2)cc(C)c1S(=O)(=O)N1CCc2ccccc21 | -2% | 0.28
O=C(NCc1nc(C2CC2)no1)N1CCC[C@H](CN2CCOCC2)C1 | 4% | -0.42
C[C@@H]1CCC[C@H](C)N1CC(=O)NCCc1cnn[nH]1 | -5% | 0.7
O=C(NCC1([C@H](O)c2ccccc2)CC1)c1cc(O)ccc1C(F)(F)F | -10% | 1.61
NC(=O)c1cncc(N[C@@H]2COCC[C@@H]2Oc2ccc(F)cc2)n1 | -2% | 0.31

Compound | % Inhibition | Z score
Cc1ccc(NC[C@H]2CCN(CCn3cccn3)C2)nc1 | 6% | -1.02
COC(C)(C)C[C@H](C)NCc1cccnc1N | -6% | 1.23
Cc1ccc(NC(=O)c2cn(-c3cc(-c4nc(C5CC5)no4)ccn3)cn2)cc1C | -9% | 1.22
O=C(CN1C(=O)COc2ccc(Cl)cc21)Nc1nncs1 | -10% | 1.12
Cc1nnc(CN(C)CCn2ccnc2C)s1 | -2% | 0.32
Cc1cccc(C2CC(C(=O)Nc3ccccc3)CN(Cc3cccc(F)c3)C2)c1 (stereo not drawn) | -2% | 0.27
Cc1ccc(-n2cnnc2)c(C(=O)N2CC[C@H]2C2CC2)c1 | -10% | 1.5
CC(C)CS(=O)(=O)C1CN(C(=O)c2nc3ccccc3s2)C1 | -9% | 1.52
CC(=O)N1CCC(c2ncnn2-c2ccc(C(F)(F)F)cc2)CC1 | -7% | 0.91
CC(C)C[C@H]1CCN(C(=O)c2cc3ncccn3n2)C1 | -14% | 2.16
CCc1ncc(NC(=O)N(CCO)C2CCCCC2)cn1 | -6% | 0.84
N#Cc1ncn(Cc2nc3ccccc3c(=O)[nH]2)n1 | -8% | 1.49
C[C@H]1CNC(=O)N1c1cccc(NC(=O)c2scnc2C2CC2)c1 | -13% | 2.01
COc1ccc(CNC(=O)c2nn(-c3ccccc3)c3ccccc3c2=O)cc1 | -14% | 1.89
COC1(C)CC(Nc2nn3cc(C)nc3s2)C1(C)C (stereo not drawn) | -10% | 1.37
CC(C)c1nc(CC(=O)Nc2cccnc2)cs1 | 6% | -0.65
Cc1nc(C(=O)N2CCOC3CC(N(C)C)CCC32)nn1-c1ccc(Cl)cc1 (stereo not drawn) | 2% | -0.26
Cn1c(CN2CC[C@H](NC(=O)c3cnccn3)[C@@H](O)C2)cc2ccccc21 | -6% | 0.84
COc1ncccc1C(=O)NC[C@H](O)COc1ccc(F)cc1 | -8% | 1.28
NC(=O)CC1CCCCN1c1ncnc2c1ncn2CC1(O)CCOC1 (stereo not drawn) | -21% | 2.76
O=C1c2ccc(C(c3ccc4c(c3)C(=O)N(c3ccc(Oc5ccccc5)cc3)C4=O)(C(F)(F)F)C(F)(F)F)cc2C(=O)N1c1ccc(Oc2ccccc2)cc1 | -9% | 1.22
Cc1noc(C)c1C1CCCN1C(=O)NCC1CCCO1 (stereo not drawn) | -5% | 0.71
Cc1cc(NC(=O)N[C@H]2C[C@@H](OC(C)C)C2)no1 | 6% | -0.76
NC(=O)c1cccc(C(=O)OC[C@H]2CCN(c3ccccc3)C2)c1 | -14% | 2.03
Cc1cnc(C2CCC2)n1CCNC(=O)CN1CCOCC1 | -4% | 0.5
Cc1csc(Cl)c1NC(=O)NCc1ccccc1CC(F)(F)F | -5% | 1.06
O=C(N1CCCC(Nc2cccc(Br)c2)C1)C1(O)CCOC1 (stereo not drawn) | 1% | -0.15
